Measured values from PubChem BioAssay AID1030 (National Center for Advancing Translational Sciences (NCATS), 2008).
Screen size: about 220,000 compounds; about 16,000 (7.3%) were called active. Inconclusive results, whose numbers are uncertain, are shown with a selection of clear calls. Calls follow the shape of the dose curve; as a rule, active = well fitted inhibition curve with a large enough effect (not every such curve was filed as active); inconclusive = small, poorly fitted or top-dose-only effect, or another doubt; inactive = no such curve, though single readings can be large or run the other way. Potencies of inconclusive entries are left out as doubtful fits.

What follows are compounds tested against Aldehyde dehydrogenase 1A1 (Homo sapiens) (UniProt P00352) (assay: qHTS Assay for Inhibitors of Aldehyde Dehydrogenase 1 (ALDH1A1)). Details: Purified ALDH1A1, NADH fluorescence, propionaldehyde substrate; series mostly up to 75.3 µM; activity, negative = inhibition: at the top concentration.
Chain of UniProt P00352 (P00352 whole entry, looked up): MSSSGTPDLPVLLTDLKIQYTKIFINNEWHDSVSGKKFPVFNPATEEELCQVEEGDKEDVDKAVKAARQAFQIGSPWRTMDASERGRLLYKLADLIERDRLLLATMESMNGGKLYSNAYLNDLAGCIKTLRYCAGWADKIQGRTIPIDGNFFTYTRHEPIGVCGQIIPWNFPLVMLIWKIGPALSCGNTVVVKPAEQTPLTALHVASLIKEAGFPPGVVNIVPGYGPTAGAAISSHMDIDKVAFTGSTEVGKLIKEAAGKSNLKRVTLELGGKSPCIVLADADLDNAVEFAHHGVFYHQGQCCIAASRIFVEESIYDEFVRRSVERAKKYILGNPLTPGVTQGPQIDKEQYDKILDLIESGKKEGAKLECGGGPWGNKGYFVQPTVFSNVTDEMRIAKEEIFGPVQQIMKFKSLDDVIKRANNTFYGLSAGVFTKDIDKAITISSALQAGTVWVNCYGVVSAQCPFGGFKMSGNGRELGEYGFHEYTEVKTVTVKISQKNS

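For activity, negative = inhibition in this document: plate controls were no enzyme wells and a reference inhibitor.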
Potency is read from the fitted curve at half-maximal effect; tags tell the direction and shape of the fitted curve.

Row | Compound | activity, negative = inhibition | Potency
1 | C=CCNC(=S)Nc1c(N)n(C)c(=O)n(C)c1=O | inactive: 18.7% | 
2 | COc1cc(OC)cc(C(=O)Nn2cc(C(=O)Nc3ccc(F)cc3F)c3ccccc3c2=O)c1 |  | inconclusive [inhibitor, single point]
3 | COC(=O)CSC1=C(C#N)C(c2ccc3c(c2)OCO3)C2=C(CCCC2=O)N1 (configuration not stated) | inactive: -5.33% | 
4 | CCN(/N=C/c1ccccc1)c1cc(=O)n(C)c(=O)[nH]1 |  | inconclusive [inhibitor, single point]
5 | CCCc1nnc(NC(=O)CCC(=O)N2CCCCCC2)s1 |  | inconclusive [inhibitor, partial curve]
6 | O=[N+]([O-])c1ccc(-n2nnnc2-c2ccccc2)c([N+](=O)[O-])c1 | inactive: -5.22% | 
7 | COc1ccc(-n2nnnc2SC(C)C(N)=O)cc1 (configuration not stated) | inactive: -7.43% | 
8 | CN(C)/C=C1/Oc2c(ccc3ccccc23)C1=O |  | inconclusive [inhibitor, single point]
9 | O=C(Cc1cccs1)NNC(=S)NC(=O)c1ccccc1 |  | inconclusive [inhibitor, single point]
10 | CCc1c(C)sc(NC(=O)CC#N)c1C#N |  | active: 3.55 µM
11 | CCN1/C(=C/c2sc(-c3ccccc3C)c[n+]2C)Sc2ccccc21 |  | inconclusive [inhibitor, single point]
12 | COc1ccc(-c2nc(NC(=O)CSc3nnc(C)s3)ns2)cc1 |  | inconclusive [inhibitor, partial curve]
13 | CCNC(=S)N1CCN(CCN2C(=O)c3cccc4cccc(c34)C2=O)CC1 | inactive: 3.7% | 
14 | CCOC(=O)N1CCN(C(=O)CSCc2ccccc2Cl)CC1 | inactive: -2.63% | 
15 | CC(C)(C)CC(=O)NC(=S)NCc1ccco1 | inactive: 3.65% | 
16 | N#Cc1c(-c2ccco2)nc(SCC(=O)Nc2ccc(S(N)(=O)=O)cc2)[nH]c1=O | inactive: 6.62% | 
17 | CCCNC(=O)NC(C(=O)OC)C12CC3CC(CC(C3)C1)C2 (configuration not stated) | inactive: -1.69% | 
18 | COc1ccc2nc(NC(=O)c3cccc(OCc4c(C)noc4C)c3)sc2c1 |  | inconclusive [inhibitor, partial curve]
19 | COc1ccc(-n2c(-c3ccc(Br)cc3)nc(=S)c3c2CCCC3)cc1 |  | inconclusive [inhibitor, single point]
20 | CCOc1nnc(C)c2c(C)n(-c3cccc(OC)c3)nc12 | inactive: 4.42% | 
21 | CCc1ccc(NC(=O)c2cc(C(C)C)on2)cc1 |  | inconclusive [inhibitor, partial curve]
22 | CC(=O)Oc1ccc(-n2c(=O)c3ccccc3c3ccccc3c2=O)cc1 | inactive: -4.61% | 
23 | C#CCNC(=O)C1=C[C@@H](c2coc3ccccc3c2=O)C[C@@H](OCCCCO)O1 |  | active: 10 µM
24 | CCOc1cc(NC(=O)c2cnccn2)c(OCC)cc1NC(=O)c1cccc(F)c1 | inactive: 2.19% | 
25 | CN(C)S(=O)(=O)c1ccc(-c2cn3ccccc3n2)cc1 |  | inconclusive [inhibitor, partial curve]
26 | COc1ccc(OC)c2sc(NC(=O)C3CC3)nc12 |  | inconclusive [inhibitor, single point]

Row | Compound | activity, negative = inhibition | Potency
27 | N#C/C(=C\c1ccc(OC(=O)c2ccccn2)cc1)C(N)=O |  | inconclusive [inhibitor, partial curve]
28 | O=C(Nc1ccc(/C=C/c2nc3ccccc3o2)cc1)c1cccc(C(F)(F)F)c1 |  | inconclusive [inhibitor, single point]
29 | Nc1ncnc(Sc2ccccc2)c1[N+](=O)[O-] | inactive: -9.29% | 
30 | CCn1cc(C(=O)NCC2CCCO2)c(=O)c2cc(S(=O)(=O)N3CCCCCC3)ccc21 (configuration not stated) |  | active: 4.47 µM
31 | CC1CN(c2oc(-c3ccccc3Cl)nc2C#N)CC(C)O1 (configuration not stated) |  | inconclusive [inhibitor, full curve]
32 | CN(C)c1ccnc(Oc2ccccc2)c1C#N |  | inconclusive [inhibitor, single point]
33 | CC1=C(C(=O)Nc2ccccc2)C2(CCCCC2)C(C(N)=O)C(=S)N1 (configuration not stated) | inactive: 13.2% | 
34 | Cc1cccc(-n2nc3c(c2NC(=O)c2ccc(S(=O)(=O)N4CCOCC4)cc2)CSC3)c1C |  | inconclusive [inhibitor, partial curve]
35 | C=CCc1ccc(OCC(O)CO)c(OC)c1 (configuration not stated) | inactive: -11.7% | 
36 | S=c1[nH]nc(-c2ccccn2)n1/N=C/c1cccc2ccccc12 |  | inconclusive [inhibitor, single point]
37 | NNC(=O)c1cc2sccc2s1 |  | active: 2.51 µM
38 | O=C1CCC(C(=O)N2CCC(CO)(Cc3ccc(Cl)cc3)CC2)=NN1 |  | inconclusive [inhibitor, partial curve]
39 | Cc1cc(C)nc(SCC(=O)N2CCCCC2)n1 |  | inconclusive [inhibitor, single point]
40 | CS(=O)(=O)Nc1ccc(N2CCCCC2)c(Cl)c1 | inactive: -7.46% | 
41 | O=C(COC(=O)CC1CC2CCC1C2)NC(=O)NCc1ccco1 (configuration not stated) |  | active: 14.1 µM
42 | CCSc1nnc(NC(=O)c2ccco2)s1 | inactive: 6.86% | 
43 | Cc1ccc(NC(=O)CN2C(=O)S/C(=C/c3ccc(-c4cc(C(=O)O)ccc4C)o3)C2=O)cc1C |  | inconclusive [inhibitor, partial curve]
44 | C=CCN1C(C(=O)c2ccccc2)=C(OC(=O)COc2ccccc2)c2ccccc2S1(=O)=O | inactive: -3.22% | 
45 | CSCCC(=O)Nc1nc(-c2ccccn2)cs1 |  | active: 28.2 µM
46 | Oc1ccc(-c2nnc(SCC3CCCCC3)o2)cc1 | inactive: -3.13% | 
47 | CCOC(=O)c1sc(NC(=O)Nc2ccccc2Cl)cc1C | inactive: -0.722% | 
48 | Cc1nc(N2CCOCC2)c2c(C)c(C(=O)Nc3ccc(F)cc3Cl)sc2n1 |  | inconclusive [inhibitor, single point]
49 | Cc1cccc2cc(C(c3nnnn3CC3CCCO3)N3CCCc4ccccc43)c(=O)[nH]c12 (configuration not stated) |  | active: 1.12 µM
50 | O=c1cc(-c2cc(O)c(O)c(O)c2)oc2cc(O)cc(O)c12 |  | inconclusive [inhibitor, single point]
51 | O=C(CCC(=O)OCC(=O)c1ccc([N+](=O)[O-])cc1)NC1CCCCC1 |  | active: 2.82 µM
52 | CCCCOc1ccc(/C=C/C2=CC(C)(C)NC(=S)N2)cc1OCC |  | inconclusive [inhibitor, partial curve]
